Screen size: about 310,000 compounds; about 2,200 (0.71%) showed an effect of 50% or more. Effects have a minus sign here. The list shows a part of the results.
target: human ether-à-go-go-related gene (hERG) potassium channel (human, UniProt Q12809); assay: primary screen, population patch clamp on CHO cells stably expressing hERG
Sequence (Q12809 whole entry, looked up): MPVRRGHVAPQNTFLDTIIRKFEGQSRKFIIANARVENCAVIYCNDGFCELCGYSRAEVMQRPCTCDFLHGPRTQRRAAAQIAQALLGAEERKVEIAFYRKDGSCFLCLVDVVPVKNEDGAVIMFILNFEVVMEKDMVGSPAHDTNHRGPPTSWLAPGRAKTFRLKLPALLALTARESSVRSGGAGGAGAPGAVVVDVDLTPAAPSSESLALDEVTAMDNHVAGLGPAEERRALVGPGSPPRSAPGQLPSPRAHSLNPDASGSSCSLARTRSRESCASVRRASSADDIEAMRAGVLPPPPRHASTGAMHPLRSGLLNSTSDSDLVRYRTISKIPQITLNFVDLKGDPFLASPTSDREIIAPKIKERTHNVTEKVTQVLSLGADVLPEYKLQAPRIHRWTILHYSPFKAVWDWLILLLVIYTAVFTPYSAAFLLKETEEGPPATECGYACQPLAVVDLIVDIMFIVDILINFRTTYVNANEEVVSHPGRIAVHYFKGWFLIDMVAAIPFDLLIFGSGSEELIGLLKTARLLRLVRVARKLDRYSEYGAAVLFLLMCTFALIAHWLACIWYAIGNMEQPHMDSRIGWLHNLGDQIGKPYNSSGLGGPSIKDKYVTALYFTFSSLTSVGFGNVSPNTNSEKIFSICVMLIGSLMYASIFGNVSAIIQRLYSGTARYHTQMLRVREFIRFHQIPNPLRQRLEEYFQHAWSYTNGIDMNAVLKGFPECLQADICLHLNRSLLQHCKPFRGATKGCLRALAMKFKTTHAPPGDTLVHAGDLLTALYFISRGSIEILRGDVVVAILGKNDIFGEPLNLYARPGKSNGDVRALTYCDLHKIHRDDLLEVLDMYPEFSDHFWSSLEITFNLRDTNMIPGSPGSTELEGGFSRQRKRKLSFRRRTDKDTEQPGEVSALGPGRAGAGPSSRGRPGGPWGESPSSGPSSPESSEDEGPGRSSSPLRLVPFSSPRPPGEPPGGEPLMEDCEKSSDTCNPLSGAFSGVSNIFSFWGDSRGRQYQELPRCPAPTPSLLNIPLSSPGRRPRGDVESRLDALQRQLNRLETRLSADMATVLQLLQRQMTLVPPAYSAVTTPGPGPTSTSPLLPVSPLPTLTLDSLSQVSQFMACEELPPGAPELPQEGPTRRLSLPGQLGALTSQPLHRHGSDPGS

| Structure (SMILES) | hERG current change (%, negative = inhibition) at 1uM |
| --- | --- |
| Cc1ccc(CS(=O)(=O)c2cn(CC(=O)N3CCOCC3)c3ccccc23)cc1 | 6.59% |
| CN(CC(=O)Nc1ccccc1C(F)(F)F)C(=O)c1ccc2c(=O)n3c(nc2c1)CCC3 | 0.553% |
| COc1ccc2c(n1)Sc1nc3ccccc3nc1N2 | 18.2% |
| CC1CCCN(C(=O)COC(=O)CNC(=O)c2sc3ccccc3c2Cl)C1 (stereo not drawn) | 8.42% |
| CC(C)Oc1ccc(C(=O)OCC(=O)NC(=O)NC2CCCC2)cc1 | 3.28% |
| CCC(C)c1ccc(NC(=O)C2CCCN(c3ncccn3)C2)cc1 (stereo not drawn) | 0.615% |
| CCN1C(=O)CC(c2ccc(OC(C)C)cc2)C1=O (stereo not drawn) | 9.29% |
| CC(=O)c1c(C)[nH]c(C(=O)OCC(=O)Nc2ccccc2Cl)c1C | 4.51% |
| CN(C)CCNC(=O)CNC(=S)N(Cc1ccccc1)Cc1cccnc1 | 6.62% |
| NC(=O)COC(=O)c1sc2ccccc2c1Cl | 23% |
| Cc1cc(C)cc(OCC(=O)OCC(=O)Nc2cc(C)nn2-c2ccccc2)c1 | 15.3% |
| Cc1ccc(-n2nc3c(=O)n(CCCC(=O)N4CCC(C)CC4)nc(C)c3c2C)cc1 | -21.2% |
| O=C(CN1CC(=O)Oc2ccccc21)NCc1ccco1 | 14.1% |
| CC(NC(=O)CN1C(=O)NC2(CCc3ccccc32)C1=O)c1ccccc1 (stereo not drawn) | 1.44% |
| COc1ccccc1-c1sc2ccccc2c1-c1ccc(C(C)=O)cc1 | 12.3% |
| O=C(NCc1ccncc1)C1CCCN(S(=O)(=O)c2cc(Cl)ccc2Cl)C1 (stereo not drawn) | -21.5% |
| OCCN1CCN(c2nnc(-c3ccccc3)c3ccccc23)CC1 | -2.66% |
| Cc1ccc(CNC(=O)c2cc3c(s2)CS(=O)(=O)C3)cc1 | 15.5% |
| CC1(OC(=O)C2CCCC2)C(=O)C=C2C=C(c3ccsc3)N(Cc3ccccc3)C=C2C1=O (stereo not drawn) | 3.1% |
| COc1ccc(CCNC(=O)c2ccc3c(c2)NC(=O)C(C(C)C)N3)cc1OC (stereo not drawn) | 13.7% |
| C#CCN1C(=O)C2(OCCO2)c2ccccc21 | 15.3% |
| Cc1cc(C)c(S(N)(=O)=O)c(C)c1N(C)S(=O)(=O)c1ccc(Cl)cc1 | 6.12% |

| Structure (SMILES) | hERG current change (%, negative = inhibition) at 1uM |
| --- | --- |
| CCOc1ccc(/C(O)=C2/C(=O)C(=O)N(c3ncccn3)C2c2ccc(C)cc2)cc1 (stereo not drawn) | 9.87% |
| CCOC(=O)c1c(NC(=O)Cn2nc(C(=O)O)c3ccccc3c2=O)sc(C)c1C | 12.4% |
| CC(C)C(=O)Nc1ccc(NC(=O)c2cccc3c(Br)cccc23)cc1 | 9.36% |
| CC(C)COc1nc2c(c(=O)n(C)c(=O)n2C)n1C | -1.65% |
| COc1cc(C(=O)NCCCOC(C)C)ccc1OC1CCN(C(C)=O)CC1 | 15.9% |
| COc1cc(CN2CCCC(C(=O)c3sccc3C)C2)cc(OC)c1O (stereo not drawn) | -15.2% |
| O=S(=O)(c1c(F)cccc1F)N1CCN(Cc2c(O)ccc3ccccc23)CC1 | 6.69% |
| Cc1cccc(C(C)Nc2ccc([N+](=O)[O-])cn2)c1 (stereo not drawn) | -5.66% |
| Cc1ccc(N(CC(=O)NCC2CCCO2)C(=O)CCC(=O)Nc2nccs2)cc1C (stereo not drawn) | 16% |
| CCOc1ccc(C(=O)NC2CCN(C(=O)Nc3ccccc3OC)CC2)cc1 | 16.3% |
| CN1CCc2c(sc3c2C(=O)NC(c2ccco2)N3)C1 (stereo not drawn) | 10.6% |
| Cc1ccc(OCCn2cc(/C=C3\C(=O)NN(c4ccccc4)C3=O)c3ccccc32)cc1 | 9.93% |
| O=C(Nc1cccc(S(=O)(=O)N2CCOCC2)c1)c1ccc(N2CCOCC2)c([N+](=O)[O-])c1 | 2.79% |
| Cc1nc(C(F)(F)F)c(C(=O)N/N=C(\N)c2cccnc2)s1 | 19% |
| COc1ccc(CN2CCNC(=O)C2CC(=O)N(C)Cc2nccs2)c(OC)c1 (stereo not drawn) | 13.1% |
| COCCNC(=O)C1CC2Cn3c(nc4cc(Cl)c(Cl)cc43)C2N1C (stereo not drawn) | -7.67% |
| Cc1ccc(Cl)cc1N1CCN(C(=O)c2noc(C(C)C)c2[N+](=O)[O-])CC1 | 3.01% |
| O=C(CCC(=O)N1CCCC1)Nc1nnc(C2CCCCC2)s1 | 8.89% |
| Cn1nc(C(F)(F)F)c(C(=O)Nc2ccc(F)cc2F)c1Sc1cccc(Cl)c1 | -1.51% |
| Fc1ccc(-c2nnc(-n3nnc4ccccc43)c3ccccc23)cc1 | 8.44% |
| O=C(c1c[nH]c(C(=O)C(Cl)(Cl)Cl)c1)c1ccccc1F | 8.26% |
| COC(=O)c1cc(=O)nc2sc(-c3ccc(F)cc3)nn12 | 2.2% |

| Structure (SMILES) | hERG current change (%, negative = inhibition) at 1uM |
| --- | --- |
| CC(=O)Nc1ccc(-c2csc(NC(=O)CN3C(=O)NC4(CCCC4)C3=O)n2)cc1 | 22.1% |
| COc1ccc(NC(=O)[C@@H](NC(=O)c2ccccc2)C(C)C)cc1S(=O)(=O)N1CCCCC1 | 15.2% |
| O=c1c2c(n3cnnc3n1-c1ccccc1)-c1ccccc1CC21CCCC1 | 6.62% |
| CCc1cc(C(=O)OC)c(NC(=O)c2ccoc2C)s1 | 13.9% |
| CN(C)S(=O)(=O)c1ccc(/C(O)=C2/C(=O)C(=O)N(Cc3cccnc3)C2c2ccco2)cc1 (stereo not drawn) | 8.6% |
| COc1cc(C2NC(=O)NC(C)=C2C(=O)OC(C)(C)C)ccc1OCC(=O)O (stereo not drawn) | 20.8% |
| O=c1c(/C=C(\O)c2ccccc2)nc2ccccc2n1-c1ccccc1 | 11.9% |
| O=C(N/N=C/c1ccc(Br)s1)c1cccnc1 | 0.941% |
| COc1cc(NC(=S)Nc2ccccn2)cc(OC)c1OC | 7.59% |
| CC(NC(=O)CSc1ccccc1)c1ccccc1 (stereo not drawn) | 17.8% |
| Cn1ncc(N=Cc2ccccc2O)c1C(=O)Nc1ccccc1 | 1.34% |
| CCSCC1COC(c2cccn2Cc2ccc(C)cc2)=N1 (stereo not drawn) | 3.45% |
| Cc1ccc(C)c(NC(=O)CCC(=O)N2CCOc3ccccc32)c1 | 9.35% |
| O=C(O)c1cccc(CSc2nc(-c3ccccc3)cc(C(F)(F)F)n2)c1 | 7.3% |
| O=C(c1cc(F)ccc1F)C1CCCN(Cc2cc(Cl)ccc2O)C1 (stereo not drawn) | 13.7% |
| CC(=O)Nc1ccc(S(=O)(=O)NCCC(=O)OCc2ccccc2F)cc1 | 4.78% |
| Cc1c(NC(=O)c2ccc(S(=O)(=O)N(C)C)cc2)cccc1-n1cnnn1 | 20.7% |
| Cc1c(C(=O)N2CCN(c3ncccn3)CC2)oc2ccc(Cl)cc12 | 2.57% |
| Cc1ccc(S(=O)(=O)Cn2nnnc2CN(Cc2ccco2)CC2CCCO2)cc1 (stereo not drawn) | 3.47% |
| CCOC(=O)c1sc2ccc(S(=O)(=O)N3CCOCC3)cc2c1N | 10.6% |
| COC(=O)c1ccc(CN2C(=O)NC3(CCC(C)CC3)C2=O)cc1 (stereo not drawn) | 12.2% |
| CN1C(=O)N(c2cccc3ccccc23)C(n2cncn2)C1(C)C (stereo not drawn) | 11.2% |

| Structure (SMILES) | hERG current change (%, negative = inhibition) at 1uM |
| --- | --- |
| CC(C)c1nnc(NC(=O)C2CCN(c3nc4ccccc4s3)CC2)s1 | 10.8% |
| Cc1[nH]c2ccccc2c1CC#N | 13.7% |
| O=C(O)c1cccnc1C(=O)c1ccccc1 | 14.1% |
| O=C(NCc1cccs1)c1nc2c(nnn2Cc2ccccc2Cl)c(=O)[nH]1 | 16.1% |
| CCOCCCNC(=O)C1(O)c2cc(Br)ccc2NC(=O)N1c1ccc(C)c(C)c1 (stereo not drawn) | 10.4% |
| Cc1cccc(NC(=S)N2CCC(NC(=O)c3cccc(F)c3)CC2)c1 | 5.76% |
| COc1ccc(Cl)cc1N(C(=O)c1ccco1)C(C(=O)NC1CCCC1)c1ccncc1 (stereo not drawn) | 9.16% |
| CC(C)(C)C1CCc2c(sc(NC(=O)c3cccs3)c2C(=O)N2CCCCC2)C1 (stereo not drawn) | 8.81% |
| O=[N+]([O-])c1ccc(S(=O)(=O)Nc2ccccn2)cc1 | 15.1% |
| Oc1ccc2ccccc2c1C=Nc1ccc(N2CCOCC2)cc1 | 7.53% |
| Cc1ccc(/C=N/NC(=O)C(NC(=O)c2ccccc2)c2n[nH]c(=O)c3ccccc23)cc1 (stereo not drawn) | 10.8% |
| Cc1ccc(S(=O)(=O)N(C)CCCC(=O)Nc2cc(C)ccc2C)cc1 | -2.45% |
| CCOc1ccc(NC(=O)CCCN2C(=O)C(c3ccccc3)Oc3cccnc32)cc1 (stereo not drawn) | 19.8% |
| CC1(c2ccc3noc(-c4ccccc4)c3c2)OCCO1 | 9.5% |
| O=C(CCC(=O)c1ccc(F)cc1)OC1CCOC1=O (stereo not drawn) | -2.8% |
| Cn1c(N)c(S(=O)(=O)N2CCN(c3ccccc3F)CC2)c(=O)n(C)c1=O | 8.44% |
| COc1cccc(C(=O)NC(=O)Nc2cc(C)[nH]n2)c1 | 7.28% |
| COc1ccccc1OCC(=O)NCc1n[nH]c(=O)c2ccccc12 | 8.33% |
| CC(C)N(N=Nc1ccc([N+](=O)[O-])cc1)C(C)C | 8.39% |
| COc1ccc(CN2CNc3nc4ccccc4n3C2)cc1 | -0.92% |
| CCN(CC)c1ccc(/C=N/Nc2nc(C)cc(=O)[nH]2)cc1 | -6.56% |
